# Assay results taken from the supplement of paper PMC10126150.
# Sequences with one replicate were seen in a single cluster, so their values are uncertain.
# System: ATP
# Assay: switch fluorescence ratio, 500 uM ATP over buffer (Cy3 cluster intensity, sum of 5 cycles each) (fold (ratio)); higher = stronger signal-on switching upon ATP binding; sequences stand for … in TCGTCGGCAGCGTCAGATGTGTATAAGAGACAGTTTTTTTTTTTTTTTTTTTTTTTTT…TC
# Details: aptamer strand: ATP DNA aptamer (quencher-CACCTGGGGGAGTATTGCGGAGGAAGG + anchor), 100 nM annealed; ATP concentration: 500 uM; one replicate
# Summary of the method: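 Clusters with intensities outside 100-1000 RFU were excluded. The remaining Cy3-labelled switching-strand clusters on a modified Illumina MiSeq flow-cell had been annealed to 100 nM quencher-labelled ATP aptamer and imaged in selection buffer, then after 15 min with 500 uM ATP at 22 °C, for five cycles separated by NaOH stripping and re-annealing. The fluorescence ratio, averaged per switch-domain sequence, is each cluster's summed target-cycle Cy3 intensity over its summed buffer-cycle Cy3 intensity.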
# 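Further: ATP exposure 15 min at 22 °C before imaging.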
row,Sequence,switch fluorescence ratio
1,TGCTTAAGGT,0.999
2,TGCTTACCAG,1.03
3,TGCTTAGCCG,0.949
4,TGCTTATCCC,1.37
5,TGCTTCTTA,0.997
6,TGCTTGAGTT,1.06
7,TGCTTTCCGT,1.05
8,TGCTTTGACG,1.03
9,TGGAAAAATA,1
10,TGGAACAAGT,0.954
11,TGGAACCAGG,1.3
12,TGGAACCGCG,1.05
13,TGGAACTAGA,0.993
14,TGGAACTATT,0.998
15,TGGAAGGCAG,1.02
16,TGGAAGTCAA,1.03
17,TGGAATATTG,0.964
18,TGGAATCATA,0.964
19,TGGACAATCA,0.952
20,TGGACACGTT,0.971
21,TGGACATGGA,0.998
22,TGGACCATAC,1.32
23,TGGACCCAAG,1.03
24,TGGACGATGT,1.02
25,TGGACGGGAA,1.16
26,TGGACGGGCA,1.12

row,Sequence,switch fluorescence ratio
1,TGGACTAACT,1.13
2,TGGACTACGA,1.05
3,TGGACTTAGA,0.966
4,TGGACTTTGT,1.01
5,TGGAGCCAT,1.07
6,TGGAGCCGCA,0.991
7,TGGAGGGTG,1.07
8,TGGAGGGTGT,1.04
9,TGGAGGTTGG,0.935
10,TGGAGTTCT,0.997
11,TGGATAACTT,1.04
12,TGGATACATC,0.963
13,TGGATATGCG,1.01
14,TGGATCACTG,0.983
15,TGGATCAGC,1.02
16,TGGATCTCGT,1
17,TGGATCTCTA,1
18,TGGATGCACA,0.95
19,TGGATGTGCT,1.04
20,TGGATGTTGG,0.995
21,TGGATTCGAT,0.989
22,TGGATTGAAA,0.975
23,TGGATTGTTA,1.33
24,TGGCAAAGCG,0.977
25,TGGCACGGGA,1.02
26,TGGCATCGCG,1.08

row,Sequence,switch fluorescence ratio
1,TGGCCACTTG,1.01
2,TGGCCCATCA,0.958
3,TGGCCGAGCA,1.05
4,TGGCCGATTG,0.999
5,TGGCCGCCCG,0.961
6,TGGCCTAAC,1.06
7,TGGCCTAACC,1.02
8,TGGCCTTTGT,1
9,TGGCGACGAT,1.01
10,TGGCGAGCT,1.01
11,TGGCGATTCT,0.985
12,TGGCGCTTAT,0.971
13,TGGCGGGTCA,1.01
14,TGGCGTACGA,0.977
15,TGGCGTCACG,0.999
16,TGGCTAACTA,1.02
17,TGGCTACCTC,1.06
18,TGGCTCGA,1.03
19,TGGCTTAATG,1.01
20,TGGGAACGTA,1
21,TGGGAACTAT,1.04
22,TGGGAACTGC,0.992
23,TGGGAAGGT,0.961
24,TGGGAATATA,0.983
25,TGGGACGTGT,0.942
26,TGGGAGAAA,1.03

row,Sequence,switch fluorescence ratio
1,TGGGAGTATG,0.993
2,TGGGATAAGG,0.942
3,TGGGATATGT,0.988
4,TGGGATCTAC,1.02
5,TGGGATGACT,0.982
6,TGGGATTCTT,1.01
7,TGGGCAGCCT,0.966
8,TGGGCATTCA,0.988
9,TGGGCCGCAT,1.13
10,TGGGCCTTCA,1.44
11,TGGGCTCGGC,1
12,TGGGCTTAAA,0.988
13,TGGGCTTCAC,1.02
14,TGGGGACGAG,0.951
15,TGGGGAGGCC,1.15
16,TGGGGAGTG,1
17,TGGGGGGTA,1.02
18,TGGGGTTTTC,1.02
19,TGGGTAGC,0.954
20,TGGGTAGCCC,1.07
21,TGGGTCCCGG,1.02
22,TGGGTGAGGT,1.03
23,TGGGTGTAAT,0.957
24,TGGGTGTGAC,0.981
25,TGGGTTCGCC,0.977
26,TGGGTTTCGT,1.02

row,Sequence,switch fluorescence ratio
1,TGGTAAACTG,0.994
2,TGGTACATCG,1.02
3,TGGTACCTAT,1.03
4,TGGTAGCGCT,0.996
5,TGGTAGCGGA,1
6,TGGTAGGTGC,1.1
7,TGGTATATCC,1.03
8,TGGTATCTGT,0.989
9,TGGTATCTTT,0.923
10,TGGTCAATCC,1.01
11,TGGTCATGTC,0.981
12,TGGTCCAGCA,1.02
13,TGGTCCCGGG,1.02
14,TGGTCGAAAT,0.991
15,TGGTCGCGTC,1.01
16,TGGTCGTGCG,0.97
17,TGGTCGTGGT,0.993
18,TGGTCTACGA,0.999
19,TGGTCTGAT,0.979
20,TGGTGAAAGG,1.01
21,TGGTGCGAAG,0.999
22,TGGTGCGTTT,0.993
23,TGGTGCTGGT,0.941
24,TGGTGGCATT,1.14
25,TGGTGGCGGC,1.03
26,TGGTGGTTG,0.999

row,Sequence,switch fluorescence ratio
1,TGGTGTAATT,1.05
2,TGGTGTATCT,0.999
3,TGGTGTGAGC,1.01
4,TGGTTAAGCC,0.968
5,TGGTTGAAGC,0.971
6,TGGTTGACTC,1.03
7,TGGTTGAGCC,1.02
8,TGGTTGCAAA,0.984
9,TGGTTGGGT,1.03
10,TGGTTTTGCA,1.03
11,TGTAAAACGC,1.03
12,TGTAACGTCG,0.959
13,TGTAATAACA,0.999
14,TGTAATGGAG,0.991
15,TGTAATTCGA,0.991
16,TGTAATTGAG,0.993
17,TGTACAAAAC,1.2
18,TGTACAAGGC,1.06
19,TGTACAAGGG,1.02
20,TGTACAAGGT,1.01
21,TGTACGAAGT,0.98
22,TGTACGGCAG,0.991
23,TGTACGTAGC,1.15
24,TGTACGTTAG,1.02
25,TGTAGAGGAA,1
26,TGTAGATAGT,1.01

row,Sequence,switch fluorescence ratio
1,TGTAGATTGG,0.964
2,TGTAGCCTAC,1.14
3,TGTAGGGAGA,0.947
4,TGTAGGGCGC,1.03
5,TGTAGGTCGG,0.996
6,TGTAGGTTCG,1.01
7,TGTAGTCTTC,0.991
8,TGTATCATGA,0.974
9,TGTATGCCTA,1.05
10,TGTATGGTTC,0.994
11,TGTATTTGTC,1.02
12,TGTCAAAGGG,1.03
13,TGTCAATAGC,1.15
14,TGTCAATGTT,1
15,TGTCACAGTC,0.975
16,TGTCACGGTG,1.04
17,TGTCACTTCA,1.1
18,TGTCAGTAAA,1.03
19,TGTCATACTA,1.27
20,TGTCATTGCG,1.01
21,TGTCATTTCT,1.03
22,TGTCCCAGAT,1.22
23,TGTCCGGGAA,1.06
24,TGTCCGTATA,1.1
25,TGTCCGTCA,1.01
26,TGTCCTATCT,1.01

row,Sequence,switch fluorescence ratio
1,TGTCGAAACC,1.12
2,TGTCGACCCC,1.04
3,TGTCGAGCAC,1.04
4,TGTCGAGCAG,1
5,TGTCGAGGGT,0.97
6,TGTCGATTAG,1.03
7,TGTCGCGGCT,0.993
8,TGTCGCTAGC,1.04
9,TGTCGGCAAG,0.979
10,TGTCGGCGTG,1.08
11,TGTCGGGAGC,1
12,TGTCGGGGAA,0.96
13,TGTCGGGGCA,0.958
14,TGTCGGGTTT,0.949
15,TGTCGGTACA,1.05
16,TGTCGTAGT,0.948
17,TGTCGTAGTT,0.971
18,TGTCGTGCGG,0.995
19,TGTCGTTAGA,0.983
